# Whole data set: some 33,000 sequences, median “E-score (-0.5 to 0.5)” near -0.035, cut for the highest 2% near 0.35. This is one part of the list.
# Target: T1, Pdr3 (UniProt P33200)
# T1 sequence: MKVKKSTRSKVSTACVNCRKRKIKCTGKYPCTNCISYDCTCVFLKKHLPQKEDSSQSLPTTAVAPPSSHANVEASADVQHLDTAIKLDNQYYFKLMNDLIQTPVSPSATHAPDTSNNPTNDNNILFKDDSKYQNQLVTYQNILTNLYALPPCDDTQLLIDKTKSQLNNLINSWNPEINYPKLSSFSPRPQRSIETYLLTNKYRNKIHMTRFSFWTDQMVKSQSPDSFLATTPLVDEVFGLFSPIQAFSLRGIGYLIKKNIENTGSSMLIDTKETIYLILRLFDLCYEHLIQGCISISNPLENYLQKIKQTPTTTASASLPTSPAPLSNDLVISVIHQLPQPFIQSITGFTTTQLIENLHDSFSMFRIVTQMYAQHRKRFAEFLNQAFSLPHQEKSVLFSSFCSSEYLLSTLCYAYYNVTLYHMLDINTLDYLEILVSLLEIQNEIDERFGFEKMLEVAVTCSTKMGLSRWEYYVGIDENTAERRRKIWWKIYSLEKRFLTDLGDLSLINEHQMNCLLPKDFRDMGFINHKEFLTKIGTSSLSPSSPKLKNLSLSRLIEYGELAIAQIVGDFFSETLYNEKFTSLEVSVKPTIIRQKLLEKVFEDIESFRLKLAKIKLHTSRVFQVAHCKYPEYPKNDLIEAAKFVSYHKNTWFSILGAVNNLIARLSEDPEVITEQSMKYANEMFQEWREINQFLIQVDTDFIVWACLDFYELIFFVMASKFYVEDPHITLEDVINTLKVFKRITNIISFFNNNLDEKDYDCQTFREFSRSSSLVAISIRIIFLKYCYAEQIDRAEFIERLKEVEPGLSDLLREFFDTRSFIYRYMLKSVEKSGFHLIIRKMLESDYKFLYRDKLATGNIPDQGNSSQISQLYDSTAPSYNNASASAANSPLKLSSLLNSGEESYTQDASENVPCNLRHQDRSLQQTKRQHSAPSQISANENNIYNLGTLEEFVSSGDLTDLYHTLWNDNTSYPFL
# Experiment: PBM E-score (8-mer binding enrichment) (E-score (-0.5 to 0.5)); higher = stronger / more preferred TF binding; most listed sequences are background and not binding sites
# Conditions: protein concentration: 200 nM; construct: GST-full length
# Method: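 Universal 'all 10-mer' protein binding microarrays (Agilent AMADID 015681) probed with GST-tagged S. cerevisiae TFs (full-length or DBD) made by in vitro transcription/translation (PURExpress), about 100-200 nM. Bound TF was detected with fluorescent anti-GST. Each ungapped 8-mer (which stands for itself and its reverse complement) is scored by the PBM enrichment score (E-score), a modified Wilcoxon-Mann-Whitney statistic from -0.5 to +0.5, computed with the Universal PBM Analysis Suite. Scale: above 0.35 generally sequence-specific binding.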
row,Sequence,PBM E-score
1,ACCCTGAT,-0.0817
2,AACGATGG,-0.127
3,ACAGAACT,0.0304
4,AATCTAAA,0.0142
5,CTGATATC,0.12
6,AGATGAGA,-0.0989
7,GCAAGGAC,0.0375
8,GCACCTGA,-0.0993
9,AAGACAAC,0.0867
10,GCGGAAAA,0.397
11,AAGTCTAG,-0.167
12,ACCATGAC,-0.0124
13,ACACAGTA,-0.212
14,ATTTGACC,-0.0303
15,ATGATATG,0.129
16,GTGCACGA,-0.211
17,GGAGTGAC,0.0735
18,CAGAGAGG,-0.207
19,CCTTCTCG,-0.185
20,ATCACCAC,0.0735
21,ATAAGGGC,-0.0725
22,ACTTAGCG,0.0608
23,AGGCAAAC,-0.158
24,GTCGAACA,0.0922
25,ACTTTGAA,-0.202

row,Sequence,PBM E-score
1,CAGTAGTC,-0.229
2,CACCGCTC,0.0532
3,ACATTCAC,0.05
4,ACGTTAAC,-0.152
5,CGAAGATA,0.129
6,ATTTGATG,-0.0575
7,ACGCTCTG,-0.278
8,CCACCATA,0.0173
9,GTCTCCCA,-0.203
10,ATTGACTA,-0.0725
11,CCAGGGAG,-0.278
12,CTCTTGGA,-0.13
13,GAAATCTC,0.0634
14,GGCCGTCA,-0.0338
15,AGAAGGGG,-0.228
16,CATCCTTA,-0.18
17,CCTGCGCG,0.113
18,CCGCCTCA,0.161
19,ATCATCCG,0.276
20,TCGGCACA,0.194
21,GACGGCCC,-0.0587
22,ACCCGGCT,0.24
23,CCGAGTTA,0.195
24,TCTGCACA,0.0318
25,GACTGTTA,-0.204

row,Sequence,PBM E-score
1,CTGTTCCA,-0.195
2,AAGCAGGC,-0.203
3,AAACACTC,-0.0196
4,AGGATCTC,-0.149
5,CTGCACAA,-0.147
6,CAACCGAC,0.147
7,AGCACACA,-0.188
8,ATGGGTGC,-0.235
9,CTTCGTGA,-0.069
10,AGGAGTCC,-0.0505
11,CGGACAGA,0.3
12,GTGCGTCA,-0.0339
13,CAACTAGC,0.162
14,CTTTTAAC,-0.148
15,GTGCCGTA,0.0678
16,GGTACGCA,-0.119
17,TAGATTCA,-0.159
18,CCCGGACA,0.362
19,ATCCAGCC,0.0781
20,CTTATGTA,-0.241
21,TAACGTAA,-0.151
22,ACACGCGA,-0.0892
23,AGACTGAA,-0.06
24,ACCTCCAT,0.0237
25,CCCGTTCG,0.15

row,Sequence,PBM E-score
1,AACTTGGT,-0.0454
2,AAAGTCCG,0.219
3,ACGCCTAG,-0.328
4,AAACGGTT,-0.106
5,CGGGTCAC,0.152
6,CGTATCAG,0.159
7,AGAATCGA,0.0394
8,CACGAGAC,-0.0194
9,CCGAACTA,0.227
10,ATTCAGAG,0.167
11,GTCGGTCA,-0.117
12,AGAGAGGA,-0.0887
13,ATTTCTGC,0.182
14,CTTAAGCA,-0.0226
15,GCCGTACA,0.0125
16,CCCGCATA,0.233
17,AAAGAGTT,-0.236
18,AAACAACC,-0.0411
19,GTTAGAAA,-0.0949
20,CCGCCAAC,0.207
21,GTGAGAAA,-0.0422
22,CCACGGGG,0.335
23,ACCGGTAA,0.183
24,GTGTCGTA,-0.0135
25,GAGGAGGA,-0.215

row,Sequence,PBM E-score
1,CCCTGCCG,0.186
2,AATTATTG,0.073
3,CTCTCAGA,-0.208
4,ACTCGTGG,-0.0717
5,CAGATAAC,0.0515
6,ACCGTTAG,-0.208
7,AGCCAATG,-0.195
8,AATATGAC,0.0166
9,CCTATTAA,-0.0439
10,ACCTAGGG,-0.129
11,CTTTCGAA,-0.129
12,ATAGGTAC,-0.0461
13,AGACCATG,-0.161
14,GTTAGAGA,-0.274
15,AATTCCCA,-0.171
16,CTCTACTC,-0.0643
17,AAACTAGA,-0.112
18,AGAACTTA,0.057
19,CAGCCAAG,-0.183
20,AACTGGGG,0.0342
21,ATGTAACG,-0.0492
22,AAAGACAC,-0.0629
23,ATACTACC,-0.121
24,CCCTTTCG,0.056
25,AACTTCAC,-0.136

row,Sequence,PBM E-score
1,AGGCTAGC,-0.253
2,AGTTCTAG,-0.0244
3,AGTCATAG,-0.214
4,TAAGAGAA,-0.194
5,TGAACACA,-0.0105
6,GATGGCTA,0.0264
7,CGAACAAC,0.167
8,ATAATACA,0.212
9,CGTCAGCC,0.152
10,GATGAACC,0.134
11,ATAGTCCG,0.202
12,GATGGGCC,-0.0233
13,ACCGTGCT,-0.0933
14,GGACCGCC,0.0997
15,CGCTCGAC,-0.0496
16,TCGGATCA,0.303
17,CTCCTGAC,-0.102
18,CAGGTATG,-0.0604
19,AGTATTGG,-0.247
20,CAGTAAGG,-0.142
21,CTTAGCGC,0.172
22,AAACGAAT,-0.0316
23,AGAACGAC,-0.128
24,AAAGTCAC,-0.0173
25,CCACATAG,-0.0493

row,Sequence,PBM E-score
1,TCACTACA,0.0233
2,CCCCCTAA,-0.274
3,AAAAAGCA,-0.27
4,GAGTTCAC,-0.0568
5,TACCAATA,-0.226
6,AAAGGATG,-0.129
7,CTGCTAAA,0.0211
8,GCGGGACA,0.318
9,AGTTACAT,-0.193
10,CGTGGCGC,-0.0222
11,AGCGTCTG,-0.165
12,ACCCTTAG,-0.217
13,TATTCAGA,-0.119
14,ATCGTTCC,0.202
15,AAACGTAA,-0.104
16,ATATCACA,-0.214
17,AGATGGTA,0.076
18,CACGGGTA,0.057
19,CAAGGGAC,-0.267
20,ATACTGGC,-0.112
21,GAATTCTC,0.05
22,AGAGCCCA,-0.0752
